Reference: the supplement of paper PMC8728848
The list shows a part of the results.

How the values were obtained:
Test in all cases: glycan array binding signal (z-score within array); higher = stronger binding
Conditions in all cases: glycan notation: IUPAC condensed, linker removed
[1] = biological target: Gal(b1-4)GlcNAc(b1-3)Gal(b1-4)GlcNAc(b1-3)Gal(b1-4)GlcNAc(b1-3)Gal(b1-4)GlcNAc(b1-3)Gal(b1-4)GlcNAc(b1-2)[Gal(b1-4)GlcNAc(b1-3)Gal(b1-4)GlcNAc(b1-3)Gal(b1-4)GlcNAc(b1-3)Gal(b1-4)GlcNAc(b1-3)Gal(b1-4)GlcNAc(b1-6)]Man(a1-6)[Gal(b1-4)GlcNAc(b1-3)Gal(b1-4)GlcNAc(b1-3)Gal(b1-4)GlcNAc(b1-3)Gal(b1-4)GlcNAc(b1-3)Gal(b1-4)GlcNAc(b1-2)Man(a1-3)]Man(b1-4)GlcNAc(b1-4)[Fuc(a1-6)]GlcNAc
In short: (§1)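 Columns mapping to the same glycan were averaged after glycan names were converted to IUPAC-condensed notation. The data come from 3228 arrays in the Consortium for Functional Glycomics database, limited to those with an available protein sequence. Binding is reported as a within-array Z-score averaged across arrays of one protein sequence and across linkers.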

[2] = biological target: Gal(b1-4)GlcNAc(b1-3)Gal(b1-4)GlcNAc(b1-3)Gal(b1-4)GlcNAc(b1-3)Gal(b1-4)GlcNAc(b1-3)Gal(b1-4)GlcNAc(b1-3)Gal(b1-4)GlcNAc(b1-2)Man(a1-3)[Gal(b1-4)GlcNAc(b1-3)Gal(b1-4)GlcNAc(b1-3)Gal(b1-4)GlcNAc(b1-3)Gal(b1-4)GlcNAc(b1-3)Gal(b1-4)GlcNAc(b1-3)Gal(b1-4)GlcNAc(b1-2)Man(a1-6)]Man(b1-4)GlcNAc(b1-4)GlcNAc
In short: as §1

[3] = biological target: Gal(b1-4)GlcNAc(b1-3)Gal(b1-4)GlcNAc(b1-3)GalNAc
In short: as §1

[4] = biological target: Gal(b1-4)GlcNAc(b1-3)Gal(b1-4)GlcNAc(b1-3)[Gal(b1-4)GlcNAc(b1-3)Gal(b1-4)GlcNAc(b1-6)]GalNAc
In short: as §1

[5] = biological target: Gal(b1-4)GlcNAc(b1-3)Gal(b1-4)GlcNAc(b1-6)[Gal(b1-3)]GalNAc
In short: as §1

[6] = biological target: Gal(b1-4)GlcNAc(b1-3)Gal(b1-4)[Fuc(a1-3)]GlcNAc(b1-3)Gal(b1-4)[Fuc(a1-3)]GlcNAc
In short: as §1

[7] = biological target: Gal(b1-4)GlcNAc(b1-3)GalNAc
In short: as §1

[8] = biological target: Gal(b1-4)GlcNAc(b1-3)[Fuc(a1-3)GlcNAc(b1-6)]Gal(b1-4)Glc
In short: as §1

[9] = biological target: Gal(b1-4)GlcNAc(b1-3)[Gal(b1-4)GlcNAc(b1-6)]Gal(b1-4)GlcNAc
In short: as §1

[10] = biological target: Gal(b1-4)GlcNAc(b1-3)[GlcNAc(b1-6)]Gal(b1-4)GlcNAc
In short: as §1

[11] = biological target: Gal(b1-4)GlcNAc(b1-6)Gal(b1-4)GlcNAc
In short: as §1

[12] = biological target: Gal(b1-4)GlcNAc(b1-6)GalNAc
In short: as §1

[13] = biological target: Gal(b1-4)GlcNAc(b1-6)[Gal(b1-3)]GalNAc
In short: as §1

[14] = biological target: Gal(b1-4)GlcNAc(b1-6)[Gal(b1-4)GlcNAc(b1-3)]GalNAc
In short: as §1

Gal(b1-4)GlcNAc6P = biological target: Gal(b1-4)GlcNAc6P
In short: as §1

Gal(b1-6)Gal = biological target: Gal(b1-6)Gal
In short: as §1

Gal3S(b1-3)GalNAc = biological target: Gal3S(b1-3)GalNAc
In short: as §1

Gal3S(b1-3)GlcNAc = biological target: Gal3S(b1-3)GlcNAc
In short: as §1

[15] = biological target: Gal3S(b1-3)[Fuc(a1-4)]GlcNAc
In short: as §1

Gal3S(b1-4)Glc = biological target: Gal3S(b1-4)Glc
In short: as §1

Gal3S(b1-4)Glc6S = biological target: Gal3S(b1-4)Glc6S
In short: as §1

Gal3S(b1-4)GlcNAc = biological target: Gal3S(b1-4)GlcNAc
In short: as §1

[16] = biological target: Gal3S(b1-4)[Fuc(a1-3)]Glc6S
In short: as §1

[17] = biological target: Gal3S(b1-4)[Fuc(a1-3)]GlcNAc
In short: as §1

[18] = biological target: Gal3S(b1-4)[Fuc(a1-3)]GlcNAc6S
In short: as §1

Gal3S4S(b1-4)GlcNAc = biological target: Gal3S4S(b1-4)GlcNAc
In short: as §1

Gal3S6S(b1-4)GlcNAc = biological target: Gal3S6S(b1-4)GlcNAc
In short: as §1

Gal3S6S(b1-4)GlcNAc6S = biological target: Gal3S6S(b1-4)GlcNAc6S
In short: as §1

Gal4S(b1-4)GlcNAc = biological target: Gal4S(b1-4)GlcNAc
In short: as §1

Gal4S6S(b1-4)GlcNAc = biological target: Gal4S6S(b1-4)GlcNAc
In short: as §1

Gal6P(b1-4)GlcNAc = biological target: Gal6P(b1-4)GlcNAc
In short: as §1

Gal6S(b1-3)GlcNAc = biological target: Gal6S(b1-3)GlcNAc
In short: as §1

Gal6S(b1-3)GlcNAc6S = biological target: Gal6S(b1-3)GlcNAc6S
In short: as §1

Gal6S(b1-4)Glc = biological target: Gal6S(b1-4)Glc
In short: as §1

Gal6S(b1-4)Glc6S = biological target: Gal6S(b1-4)Glc6S
In short: as §1

Gal6S(b1-4)GlcNAc = biological target: Gal6S(b1-4)GlcNAc
In short: as §1

Gal6S(b1-4)GlcNAc6S = biological target: Gal6S(b1-4)GlcNAc6S
In short: as §1

GalNAc(a1-3)Gal = biological target: GalNAc(a1-3)Gal
In short: as §1

GalNAc(a1-3)GalNAc = biological target: GalNAc(a1-3)GalNAc
In short: as §1

[19] = biological target: GalNAc(a1-3)GalNAc(b1-3)Gal(a1-4)Gal(b1-4)Glc
In short: as §1

[20] = biological target: GalNAc(a1-3)GalNAc(b1-3)Gal(a1-4)Gal(b1-4)GlcNAc
In short: as §1

GalNAc(b1-3)Gal = biological target: GalNAc(b1-3)Gal
In short: as §1

[21] = biological target: GalNAc(b1-3)Gal(a1-4)Gal(b1-4)GlcNAc
In short: as §1

[22] = biological target: GalNAc(b1-3)Gal(a1-4)Gal(b1-4)GlcNAc(b1-3)Gal(b1-4)Glc
In short: as §1

[23] = biological target: GalNAc(b1-3)Gal(a1-6)Gal(b1-4)Glc
In short: as §1

B1: Banana lectin (Musa acuminata) (protein)
chain: MNGAIKVGAWGGNGGSAFDMGPAYRIISVKIFSGDVVDGVDVTFTYYGKTETRHYGGSGGTPHEIVLQEGEYLVGMAGEVANYHGAVVLGKLGFSTNKKAYGPFGNTGGTPFSLPIAAGKISGFFGRGGKFLDAIGVYLEPLEHHHHHH
glycan array binding signal (z-score) [1]: -0.138 | glycan array binding signal (z-score) [2]: -0.137 | glycan array binding signal (z-score) [3]: -0.189 | glycan array binding signal (z-score) [4]: -0.183 | glycan array binding signal (z-score) [5]: -0.294 | glycan array binding signal (z-score) [6]: -0.156 | glycan array binding signal (z-score) [7]: -0.212 | glycan array binding signal (z-score) [8]: -0.233 | glycan array binding signal (z-score) [9]: -0.237 | glycan array binding signal (z-score) [10]: -0.231 | glycan array binding signal (z-score) [11]: -0.217 | glycan array binding signal (z-score) [12]: -0.174 | glycan array binding signal (z-score) [13]: -0.21 | glycan array binding signal (z-score) [14]: -0.229 | glycan array binding signal (z-score) (Gal(b1-4)GlcNAc6P): -0.247 | glycan array binding signal (z-score) (Gal(b1-6)Gal): -0.217 | glycan array binding signal (z-score) (Gal3S(b1-3)GalNAc): -0.209 | glycan array binding signal (z-score) (Gal3S(b1-3)GlcNAc): -0.207 | glycan array binding signal (z-score) [15]: -0.209 | glycan array binding signal (z-score) (Gal3S(b1-4)Glc): -0.209 | glycan array binding signal (z-score) (Gal3S(b1-4)Glc6S): -0.202 | glycan array binding signal (z-score) (Gal3S(b1-4)GlcNAc): -0.227 | glycan array binding signal (z-score) [16]: -0.114 | glycan array binding signal (z-score) [17]: -0.214 | glycan array binding signal (z-score) [18]: -0.207 | glycan array binding signal (z-score) (Gal3S4S(b1-4)GlcNAc): -0.23 | glycan array binding signal (z-score) (Gal3S6S(b1-4)GlcNAc): -0.227 | glycan array binding signal (z-score) (Gal3S6S(b1-4)GlcNAc6S): -0.143 | glycan array binding signal (z-score) (Gal4S(b1-4)GlcNAc): -0.216 | glycan array binding signal (z-score) (Gal4S6S(b1-4)GlcNAc): -0.221 | glycan array binding signal (z-score) (Gal6P(b1-4)GlcNAc): -0.223 | glycan array binding signal (z-score) (Gal6S(b1-3)GlcNAc): -0.197 | glycan array binding signal (z-score) (Gal6S(b1-3)GlcNAc6S): -0.207 | glycan array binding signal (z-score) (Gal6S(b1-4)Glc): -0.208 | glycan array binding signal (z-score) (Gal6S(b1-4)Glc6S): -0.187 | glycan array binding signal (z-score) (Gal6S(b1-4)GlcNAc): -0.197 | glycan array binding signal (z-score) (Gal6S(b1-4)GlcNAc6S): -0.349 | glycan array binding signal (z-score) (GalNAc(a1-3)Gal): -0.205 | glycan array binding signal (z-score) (GalNAc(a1-3)GalNAc): -0.213 | glycan array binding signal (z-score) [19]: -0.229 | glycan array binding signal (z-score) [20]: -0.185 | glycan array binding signal (z-score) (GalNAc(b1-3)Gal): -0.213 | glycan array binding signal (z-score) [21]: -0.215 | glycan array binding signal (z-score) [22]: -0.211 | glycan array binding signal (z-score) [23]: -0.218
